According to PubChem BioAssay (NCI):
Values joined by “and” are separate entries in the source; they are usually repeats but may differ in a detail not shown here. Equal values may be shown once.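 All cell lines were grown in 96-well plates and treated with compound for 48 hours. The concentration for 50% growth inhibition is given as GI50. The concentration for full growth arrest is given as TGI.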

test system: NCI-H322M lung; experiment: NCI anticancer screen, dose series, 48 h

| Structure (SMILES) | TGI | GI50 |
| --- | --- | --- |
| CC(C)N(C(C)C)P(OCCC#N)OC1CC(n2cnc3c(=O)[nH]cnc32)OC1COC(=O)NCCCCCCNC(=O)OC(C)(C)c1ccc(-c2ccccc2)cc1 (stereo unspecified) | > 100 µM |  |
| O=C(Oc1cccc(Cl)c1)c1cc2cc(CCl)ccc2oc1=O | 43.4 µM |  |
| Oc1c(CN2CCOCC2)cc(COCc2ccccc2)c2cccnc12 | > 100 µM | 2.79 µM |
| COc1ccc(/C=N/N=C(\[O-])c2ccncc2)cc1F.COc1ccc(/C=N\N=C(/[O-])c2ccncc2)cc1F.[Cu+2] | 87.8 µM | 30.5 µM |
| CC1(C)CC2C(C1=O)C1(C)CCCC2(C)C1=O (stereo unspecified) | > 100 µM |  |
| O=C(Nc1cc(-c2cccnc2)nc(NCCCN2CCOCC2)n1)c1cc(Br)cc(C(F)(F)F)c1 | 15 µM | 3.72 µM |
| CC(C)c1cccc(C(C)C)c1OS(=O)(=O)NC(=O)OC(C(F)(F)F)C(F)(F)F | > 100 µM |  |
| NC(=O)N/N=C(/c1nc2ccc([N+](=O)[O-])cc2[nH]c1=O)C(O)c1ccco1 (stereo unspecified) | > 100 µM |  |
| C1CC[N-]CC1.CC(=N\O)/C(C)=N/O.CC(=N\O)/C(C)=N/O.[CH2-]CCN1CCOCC1.[Co+2] | > 100 µM | > 100 µM |
| COc1cc(C=O)cc(C=Nc2ccc(S(N)(=O)=O)cc2)c1O | 58.9 µM |  |
| C=CCC(CNC(=O)OCc1ccccc1)OC(=O)OCc1ccccc1 (stereo unspecified) | > 100 µM |  |
| COc1ccccc1NS(=O)(=O)c1ccc2ncn(NS(=O)(=O)c3ccc(Cl)cc3)c(=O)c2c1 | > 100 µM |  |
| CN(C)CCn1nc(N)c2nc3cc(C(F)(F)F)ccc3nc21 | > 100 µM |  |
| CC1(C)[C@@H](OC(N)=O)C=C[C@]2(C=O)[C@H]3CC[C@]4(C)[C@@H](c5ccc(=O)oc5)[C@@H](Cl)C[C@]4(O)C3=CC[C@@H]12 | 0.0167 µM | 0.0058 µM |
| Cc1cc(S(=O)(=O)Nc2nc3cc(Cl)ccc3o2)c(SCc2ccccc2)cc1Cl | 36.1 µM | 16.7 µM |
| CC1=C(C(=O)Nc2ccccc2)C(c2ccc(C(C)C)cc2)C(C(=O)Nc2ccccc2)=C(C)N1 | > 100 µM |  |
| Cc1cc(O)c(C(c2ccncc2)c2c(O)cc(C)[nH]c2=O)c(=O)[nH]1 | > 100 µM |  |
| COc1ccc(C(=O)O/N=C2/CCC/C2=C\c2ccccc2)cc1 | > 100 µM |  |
| O=[N+]([O-])c1ccc2ncccc2c1CCc1c([N+](=O)[O-])ccc2ncccc12 | > 100 µM |  |
| CCCCNC(=S)Nc1nc(C(=O)NNC(=O)c2ccccc2)cs1 | 40.9 µM |  |
| N=C(c1cccs1)C1(N2CCCCC2)CCCCC1 | 48.8 µM |  |
| O=S(=O)(/N=C(\NO)Nc1ccc(Cl)cc1)c1ccc(-c2ccccn2)s1 | > 100 µM |  |
| CCCCCCNC(=O)Oc1ccc(/C(=C(\C)c2ccccc2)c2ccc(OCCN(CC)CC)cc2)cc1 | 14.3 µM | 7.61 µM |
| C=CC(Br)(CBr)CCC(Br)C(C)C (stereo unspecified) | 29.1 µM |  |
| OC(COc1cccc2ccccc12)CN1CCN(c2ccccc2Cl)CC1 (stereo unspecified) | 30 µM | 13.5 µM |

| Structure (SMILES) | TGI | GI50 |
| --- | --- | --- |
| CN(C)CCNc1nc(-c2cccs2)cc(-c2cccs2)n1 | 26 µM |  |
| O=C1c2ccn(CCCCN3CCC(O)CC3)c2C(=O)c2c1c(O)c1ccccc1c2O | 12.5 µM | 4.94 µM |
| Nc1c(C(=O)Nc2cccc(Br)c2)sc2nc3c(cc12)C(O)CCC3 (stereo unspecified) | > 100 µM | 0.597 µM |
| COC(=O)[C@H](CCSC)NC(=O)c1ccc(CNC(=O)/C(C)=C/c2ccccc2)cc1 | 63.3 µM |  |
| CCCCCc1c(C)[nH]c(/C=C2\N=C(c3ccc[nH]3)C=C2OCc2ccccc2)c1C | 3.96 µM and 2.22 µM | 0.0817 µM and 0.0533 µM |
| CCOC(=O)/N=c1/nc(N(C)C)ss1 | > 100 µM |  |
| Nc1nc(N)c(-c2ccccc2)c(CCC(=O)Nc2ccc(Cl)cc2)n1 | > 100 µM |  |
| O=C(O)CC(O)(C(=O)O)C(O)C(=O)O (stereo unspecified) | > 1000 µM |  |
| COc1ccc2c(c1)OCCC1=C2SCC2(C)CCN=C12 (stereo unspecified) | > 100 µM |  |
| NCP(=O)(O)OCC(=O)O | > 100 µM |  |
| NCCCC[C@H](N)C(=O)Nc1ccc(-c2nc3ccccc3s2)cc1Cl | 24.9 µM |  |
| O=S(=O)(O)ONC1=NCCN1 | > 100 µM | > 100 µM |
| COc1cc(-c2nn(-c3ccc(NC(=O)c4cc(Cl)cc(Cl)c4)cc3)cc2-c2ccncc2)ccc1Cl | > 100 µM | > 100 µM |
| COc1cc2c(cc1OCCCCCOc1cc3c(cc1OC)C(=O)N1CCC[C@H]1CN3)N=C[C@@H]1CCCN1C2=O | 49.6 µM |  |
| CC(=O)O[C@H]1C=CC23OC(=O)[C@]1(C)[C@H]2[C@H](C(=O)O)C12CC(=O)[C@@](CO)(CC[C@H]13)C2 | > 100 µM |  |
| COc1ccc(C2C(Cl)C(=O)N2NC(=O)Cc2ccccc2)cc1OC (stereo unspecified) | > 100 µM |  |
| O=C1NC2(C=Cc3c(ccc4ccccc34)O2)Oc2ccccc21 (stereo unspecified) | > 100 µM |  |
| CC1(C)C2CCC(N)(C2)C1O (stereo unspecified) | > 100 µM |  |
| O=C(O)C(=O)CBr | > 100 µM | > 100 µM |
| COc1cc2c(cc1OC)-c1ncc3cc4c(cc3c1C2)OCO4 | > 100 µM | > 100 µM |
| ClCC#CCSc1ncnc2c1ncn2CC#CCCl | 5.02 µM | 2.13 µM |
| CCOC(=O)c1ccccc1-c1c2ccc(=[N+](C)C)cc-2oc2cc(N(C)C)ccc12 | 13.5 µM | 0.492 µM |
| CCOC(=O)Cc1csc(NC(=O)COC(=O)c2ccc(OC)cc2)n1 | > 100 µM | > 100 µM |
| c1ccc2nc(OCCN3CC3)ccc2c1 | 33.1 µM | 13.4 µM |
| OC(CN1CCCCC1)c1ccc(/C=C/c2ccc(Cl)cc2)cc1 (stereo unspecified) | > 100 µM |  |

| Structure (SMILES) | TGI | GI50 |
| --- | --- | --- |
| O=C(Nc1cccc(C(F)(F)F)c1)c1cc(Br)cc(Br)c1O | > 10 µM |  |
| COC(=O)C1CC(C(=O)OC)c2nc3cc(C)c(C)cc3nc21 (stereo unspecified) | > 100 µM |  |
| COc1ccc(N2C(=O)C3CC4=CC(=O)C[C@H]4[C@H]32)cc1 (stereo partly specified) | > 100 µM |  |
| COCCNC1CCC2(SCCS2)c2[nH]c3ccccc3c21 (stereo unspecified) | > 100 µM |  |
| O=C1C[C@H](c2ccc(O)c(O)c2)Oc2cc(O)cc(O)c21 | > 100 µM |  |
| Cn1ccnc1C[N-]Cc1nccn1C.O=[N+]([O-])[O-].O=[N+]([O-])[O-].[Cu+2] | > 100 µM | > 100 µM |
| Cc1nnc(-c2ccc(-c3nc4ccccc4o3)cc2)o1 | > 100 µM | 30.1 µM |
| CN(C)c1ccc(/C=c2/c3cc([N+](=O)[O-])ccc3n3c2cc(-c2ccccc2)[n+]3C)cc1 | 8.5 µM |  |
| Cc1sc2ncn(Cc3ccc(Cl)c(Cl)c3)c(=O)c2c1C | 46.5 µM | 7.88 µM |
| OC(c1ccccc1)(c1cccnc1)C(O)(c1ccccc1)c1cccnc1 (stereo unspecified) | > 100 µM |  |
| CN1CCN(CCOc2ccc(-c3cnc4c(-c5ccc(F)cc5)cnn4c3)cc2)CC1 | 3.22 µM | 1.66 µM |
| COC(=O)C1C2CC3C(OC(=O)C31)C2OC(=O)[C@](OC)(c1ccccc1)C(F)(F)F (stereo partly specified) | > 100 µM |  |
| O=P1(c2ccccc2)C2=CCC=CC2C(c2ccccc2)N1Cc1ccccc1 (stereo unspecified) | 31.7 µM |  |
| O=C(Nc1ccc(I)cc1F)c1cc(I)ccc1O |  | 1.25 µM |
| OCC(O)C(O)C(O)C(O)/C=N/Nc1nc(O)c(/C=C2\C=Nc3ccccc32)[nH]1 (stereo unspecified) | > 100 µM |  |
| O=C(NCCCCOCC#Cc1ccccc1C#CCS(=O)(=O)c1ccccc1)c1cc2ccccc2[nH]1 | > 50 µM | 18 µM |
| Cc1ccc2c(c1)C(=O)c1c-2n(CCCN=[N+]=[N-])c(=O)c2cc([N+](=O)[O-])ccc12 | > 100 µM | 61.2 µM |
| CC1=CC(=O)/C(=C/n2c(=S)[nH]c3ccccc32)C(=O)O1 | > 100 µM |  |
| Cn1ncc(-c2ccc3c(=O)[nH]nc(CN)c3c2)c1-c1c(F)cc2ccccc2c1C#N | 26.4 µM | 7.07 µM |
| O=C(CC(=O)c1ccccc1)c1ccccc1 | > 100 µM | 16.9 µM |
| CC1(C)c2ccccc2C(O)C12CCC(=O)CC2 (stereo unspecified) | > 100 µM |  |
| NS(=O)(=O)c1ccc(NC(=O)Nc2ccccc2F)cc1 | > 100 µM |  |
| COc1ccc2c(c1)-c1[nH]c3ccccc3c1CC2 | 34.3 µM |  |
| C1C[OH+]CC[OH+]CC[OH+]CC[OH+]CC[OH+]CC[OH+]1.[Cl-].[Nb+5] | > 100 µM | > 100 µM |
| COc1ccc2nc3cccc(C(=O)NCCN(C)C)c3nc2c1 | 11.1 µM |  |

| Structure (SMILES) | TGI | GI50 |
| --- | --- | --- |
| CC1CN=C(c2ccc(COc3ccc(C4=NCC(C)N4)cc3)cc2)N1 (stereo unspecified) | > 100 µM |  |
| CCN(CC)CCNc1ccc2ncn3c4cc(=O)ccc4c(O)c1c23 | 14.8 µM |  |
| N#Cc1c2c(c(-c3cccs3)n(C3OC(CO)C(O)C(O)C3O)c1=S)CCc1ccccc1-2 (stereo unspecified) | > 100 µM |  |
| CCc1nc(-n2c(-c3ccccc3)nc3ccccc3c2=O)nc(N)c1-c1ccc(Cl)cc1 | > 100 µM | 37.8 µM |
| CCN(CC)CCC(=O)c1ccc(Oc2ccc(F)cc2)cc1 | > 100 µM |  |
| CCCC1(N)CC(OC)OC(C)C1O (stereo unspecified) | > 100 µM |  |
| NS(=O)(=O)c1ccc(NC(=O)COC(=O)c2cccc3c(=O)c4ccccc4[nH]c23)cc1 | 97.4 µM |  |
| CCOC(=O)CC[C@H](N)C(=O)N[C@H](Cc1ccc(N(CCCl)CCCl)cc1)C(=O)OCC | > 56.9 µM |  |
| COc1cc([C@@H]2c3cc4c(cc3C[C@H]3COC(=O)[C@@H]32)OCO4)cc2c1OCO2 | > 100 µM |  |
| c1ccc(CCn2cncn2)cc1 | > 100 µM |  |
| O=C(CCl)Nc1cc(O)c2c(c1)C(=O)c1cccc(O)c1C2=O | 8.52 µM | 2.89 µM |
| C#CCOC(=O)C(N)CCSC (stereo unspecified) | > 100 µM |  |
| O=[N+]([O-])c1cc(F)c2cccnc2c1O | 46.5 µM | 4.25 µM |
| O=C1c2cc([N+](=O)[O-])sc2C(=O)c2ccsc21 | 3.05 µM |  |
| O=C(/C(=C/c1ccccc1)c1ccccc1)N1c2ccccc2CC1c1c[nH]c2ccccc12 (stereo unspecified) | > 100 µM |  |
| CC(=O)C1(O)Cc2c(O)c3c(c(O)c2C(OC2CC(N)C(O)C(C)O2)C1)C(=O)c1ccccc1C3=O (stereo unspecified) | 0.696 µM and 0.66 µM | 0.163 µM and 0.0786 µM |
| Cc1nc2c(=O)[nH]c3ccc(Cl)cc3c2o1 | > 100 µM |  |
| COc1ccccc1NCC(=O)Nn1c(C)nc2ccc(S(=O)(=O)Nc3ccccc3OC)cc2c1=O | > 100 µM |  |
| N#C/C(=C\c1ccccc1Br)C(=O)c1ccccc1 | > 100 µM |  |
| CC[C@H](C)C1=C(OC(C)=O)[N@+]2([O-])Oc3ccc(-c4c(OC(C)=O)c(OC(C)=O)c(-c5ccc(OC(C)=O)cc5)c(OC(C)=O)c4OC(C)=O)cc3O[C@]2([C@@H](C)CC)C(=O)N1OC(C)=O | > 50 µM |  |
| CC1(C)CC[C@]2(C(=O)O)[C@H](O)C[C@]3(C)C(=CC[C@@H]4[C@@]5(C)CC[C@H](OC6OC(C(=O)O)C(O)C(O)C6O)C(C)(C)[C@@H]5CC[C@]43C)[C@@H]2C1 (stereo partly specified) | > 100 µM |  |
| COc1cccc(C2=C(c3cn(C)c4cccc(OC)c34)C(=O)NC2=O)c1 | > 25 µM | > 20.6 µM |
| Cc1ccc2c(=O)c(-c3n[nH]c(=S)s3)c[nH]c2n1 | > 100 µM |  |
